# Results: the supplement of paper PMC11417369
# ± gives the standard deviation of the averaged measurements. Some of the results follow.
# Tested on: PfAP2-I AP2 domain 3 (GST-tagged)
# Experiment: gcPBM binding intensity (ln(normalized median fluorescence intensity)); higher = stronger DNA binding
# Outline: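 Binding of GST-tagged P. falciparum DNA-binding domains, expressed in E. coli and used at about 25 μg on average, was carried out for 1 h in 1× PBS containing 1% milk, 0.2 mg/ml BSA, 0.5% salmon testes DNA and 0.03% Triton X-100. The target was an Agilent 4 × 180k array of primer-extended double-stranded 36-bp intergenic genomic probes plus negative controls, read with Alexa488 anti-GST antibody at 488 nm. Binding intensity is the highest Masliner-normalised natural-log median intensity across replicate spots of either probe orientation.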
row,Sequence,gcPBM binding intensity (ln)
1,GTGCCATTTAAAAAATGTACAAGAAAATGTTCATCA [XGTACX_site2865],7.96 ± 0.39
2,TGGTATTGAATTTTTTGTACACATAAAATATATATA [XGTACX_site7614],7.98 ± 0.54
3,TATTTTAATTTTTTTTTGTTTTTTCTAATACATGTA [CACACA_negctrl_site1399],7.33 ± 0.72
4,TCCTTTATTTTTAAAGTGCATATACATGTACATTAT [GTGCAC_site9445],9.675 ± 0.078
5,GAAGAAAAAAAATATACACACATACGATCATACATA [CACACA_site5227],7.49 ± 0.52
6,CAGCTCTTAAGAATTACACACATATACACATATATA [CACACA_site7524],7.72 ± 0.53
7,ATACATAAATACAAACGTACATACATACATACATAC [XGTACX_site7824],8.98 ± 0.35
8,GCAACACAAAAAATTACACACAAAAAAAATATATTA [CACACA_site916],7.75 ± 0.21
9,AAAAAAAAAAAAAAATGTACATATGGTATGCATATA [XGTACX_site3225],7.99 ± 0.37
10,GCTTATAAAGGCAGAAGTACTGTATTCCTATATATA [XGTACX_site8865],7.61 ± 0.4
11,AATAATAAAAAATATACACACATATATATATATATA [CACACA_site25],9.1 ± 0.72
12,TTGGCATACGGACACACACACACACCCAGACATATA [CACACA_site4492],7.91 ± 0.46
13,TATACCTATAAATACACACACATATAAATAAATATA [CACACA_site6153],7.83 ± 0.43
14,TTATACAAATTCATGGGTACAAACAAACATATATCA [XGTACX_site6237],7.93 ± 0.56
15,AAAATATATACTCCATCACACACCAAAAAGAAAAAA [CACACA_site2542],7.71 ± 0.52
16,ATTCAAAAGATGTATACACACATGTGTATAATATAA [CACACA_site7197],7.88 ± 0.59
17,AATAATATATATATAATACACACTATTATAATCACA [CACACA_site1310],7.76 ± 0.44
18,TTTTTTTTTTTTTTTTTTTTCATTCAATTATATTTA [CACACA_negctrl_site712],8.18 ± 0.74
19,TTATCACATAAACGATGTACGTACTAGGTTTTTTTT [XGTACX_site2147],7.67 ± 0.69
20,TGAATAATATACATACGTACATACATATATATAATA [XGTACX_site1302],7.86 ± 0.26
21,ATAAAAAGGAAACACACACACACACCCATATATATA [CACACA_site904],8.52 ± 0.55
22,AACTAATATAATAATACATGCACATAAAAATATATA [TGCATGCA_site606],8.19 ± 0.39
23,AAAGGAATATAATGATGTACACAAATATATATACAT [XGTACX_site5347],7.99 ± 0.37

row,Sequence,gcPBM binding intensity (ln)
1,TATTTTTTTATTTGTGCATGTCATATTTAAACATAA [TGCATGCA_site1006],8.5 ± 0.68
2,CACGCATACGGACACACACACACACCGATATATATA [CACACA_site4521],8.29 ± 0.63
3,ATATAAAAATTAAAATGTACATATCTTATTATAATA [XGTACX_site983],7.7 ± 0.5
4,CAACATAAAAATTAAGCATGCAATAGACTTGTGTTG [TGCATGCA_site417],7.53 ± 0.96
5,TAATAAAATAATATCACACATATTTATATATATTAT [CACACA_site5814],7.42 ± 0.5
6,GTTTAAAAAAATTATCAACTTTAAAAAGGTAACATT [XGTACX_negctrl_site203],7.74 ± 0.42
7,GTAGTAAATAGGAGGATGCATATGGCACACATTATA [TGCATGCA_negctrl_site59],9.8 ± 0.26
8,TTTAATAAATAAATAAATAAAATATATTAAAAACCA [CACACA_negctrl_site80],7.46 ± 0.52
9,ATATTTTATTATTGTTGTACTTTTTTTTTTTGATTG [XGTACX_site4091],7.97 ± 0.61
10,ATAATATGAAAACACACACACACACTAATAAAAAAA [CACACA_site8617],8.03 ± 0.62
11,GGCAACAATGTAGATTGTACATATGAATTTTACAAT [XGTACX_site5655],7.66 ± 0.45
12,ATATTTTGTTTTATAGTGCACATGGGCATATATTAA [GTGCAC_site9435],11 ± 0.32
13,ATATATATTATCATTGTGCACTTATTTATATACCTT,11.1 ± 0.15
14,TTTACTTTTTTTTCTTGTACTCATACATACTATCAT [XGTACX_site4919],7.84 ± 0.83
15,AAATTTCAATAATCTACACACATAAAAAAACAAAAG [CACACA_site1702],8.14 ± 0.35
16,AATTATTTATCGGAATGTACATAAAAACATATGTAT [XGTACX_site7443],7.99 ± 0.4
17,AATAATATCATTTAGACACACACTCTTACAATATGT [CACACA_site8832],7.79 ± 0.6
18,ACCTACATAACATACACACGCATATATATAATTTTA [CACACA_site2847],8.51 ± 0.26
19,TATTTAATAAAGAAATAAAAATAAAGAAAAAAAAAA [CACACA_negctrl_site74],7.82 ± 0.58
20,CTTTCTTATTTGAACGCATGCATTTGTACCTTTTAT [TGCATGCA_site671],8.08 ± 1
21,TATATACAAAATGCCTGTACATATATATTTATTTAT [XGTACX_site761],7.59 ± 0.53
22,CATGCAAAAAATTCCACACACACACCCACATATAAA [CACACA_site1229],8.135 ± 0.064
23,CCATAAAAAGGATACACACACACACCGACATATATA [CACACA_site4653],7.8 ± 0.45

row,Sequence,gcPBM binding intensity (ln)
1,GTATTATATTTCAACTGTACGTAAAACTATTAAAAT [XGTACX_site3679],8.01 ± 0.58
2,TTCATTTAGCAAGAATGTACTTATATATATATATAT [XGTACX_site3401],9.29 ± 0.15
3,CAAAAAAATGTGAAGGCATGCAAATATGTAAAATAA [TGCATGCA_site921],8.17 ± 0.69
4,ATAAAGCCATACAATACACACATTTTACATGGGGGT [CACACA_site9072],8.95 ± 0.33
5,AAAAATATAATATAATGTACACAAAAAAAAAAAAAT [XGTACX_site4914],8.18 ± 0.15
6,TATAAATTTGTTGTTGCATGCAGTATACCAAAAAAA [TGCATGCA_site445],8.34 ± 0.72
7,ATTTGTAATTTATATTCACACATTCAAAAAAATGAG [CACACA_site6057],7.59 ± 0.52
8,TAAAATGTAATCTGAACACACATATTTTTTTAATAT [CACACA_site1768],7.42 ± 0.43
9,AATAGCCCATATGGAATACACACTGAAAATAAAAAA [CACACA_site3373],7.85 ± 0.68
10,AATACGAAGGATAAGAGTACTAATTAAATAAATGAA [XGTACX_site523],7.78 ± 0.49
11,ATATAAGAATAAATAGTGCAAAATAAATGATTATTT,10.7 ± 0.33
12,GTATATAAGTATATATGTACATATATTTTATATATA [XGTACX_site4745],7.62 ± 0.28
13,TTTTATAATTTAAAATAATGAAACTTCTTTCTATTT [TGCATGCA_negctrl_site324],7.2 ± 0.67
14,TTTTTTTTTTTTTTGGTGCGATCTTTTAAATGATCC,8.51 ± 0.11
15,TTTAAATTTTAATATGCACACAAAATGTTATATTAA [CACACA_site8015],9.06 ± 0.13
16,TTTCTGATATTTTTATATTTTCTTATATATATATAT [GTGCAC_negctrl_site652],8.88 ± 0.55
17,TTTTCAATTAATAATACACACATGTATATATTATTA [CACACA_site3311],7.79 ± 0.47
18,TACAAATACATTACATGTACATATTTAATAATATCA [XGTACX_site2075],7.72 ± 0.22
19,AAGAAAAATATATATATAAATAAATAAATATATATA [TGCATGCA_negctrl_site330],7.56 ± 0.49
20,TTTGAAAAGTATGAGGTGCAAAAAATGTAATGAAAT,10.6 ± 0.24
21,TATATTATTATGCATAGTACGTACTGTGATAAGAAT [XGTACX_site2956],8.21 ± 0.4
22,CATTTTAAAACAGACACACACCAAAAAAAAAAAAAA [CACACA_site6259],8.04 ± 0.57
23,TTTTTCTGTCGTTGTTGTACTTGAGGAGTAACAATT [XGTACX_site7852],8.15 ± 0.53

row,Sequence,gcPBM binding intensity (ln)
1,AATAATAAATATATATATATATATATATATATATTT [CACACA_negctrl_site786],7.95 ± 0.42
2,ATATATATATATATAGTGCAAATATCTTCTTTATAA,10.4 ± 0.26
3,TAATAAACCAAACTAAACAATATATCAAAAAGCACA [CACACA_negctrl_site269],9.12 ± 0.32
4,TATTATATCGAACACTGTACTTTTTTATTCAACCTA [XGTACX_site493],7.96 ± 0.51
5,GCCTTTTTATTTAGAACACACACAAAAAAAAAAAAA [CACACA_site8520],8.27 ± 0.3
6,AAAAGTTGTTTATAATGTACAAGGTAGAAAAAAACA [XGTACX_site1454],8.23 ± 0.78
7,TAAATGGATTGTTCAGGTACACATAAATATGATATT [XGTACX_site6963],7.58 ± 0.57
8,ATATTATATAATAATGCATGCACCTTATTTTCATTT [TGCATGCA_site405],9.31 ± 0.29
9,ATTATATTATTTTAAAGTACACACATATATTAATAT [XGTACX_site4769],7.9 ± 0.38
10,AACAAAATAAAAATAACACACACATTTATATATATA [CACACA_site8313],8.57 ± 0.042
11,ATTTTTCCTCTCTTTTGTACTTATATATATATATAT [XGTACX_site7405],9.55 ± 0.47
12,ATAAATACTTTTTGGTGTACACTTTTAAATGAAAAA [XGTACX_site3042],8.2 ± 0.16
13,CAATTAAAGAAAAACAGTACGTGTATCAAACATCCT [XGTACX_site8990],7.76 ± 0.46
14,ATATGCTAATAAAATTGTACATATTATTCATATTGT [XGTACX_site2344],7.57 ± 0.53
15,TGACTACATAAAATGACACACACAAACTTTAAAATT [CACACA_site9151],7.84 ± 0.76
16,ATATATTTTTAGCACAGTACAATATAATTAAATATA [XGTACX_site6779],8.36 ± 0.36
17,TAGTATTATTATTATGCACACAAAAATATTTATACA [CACACA_site9219],10.1 ± 0.48
18,TTTTTTTTTTTTTTTTGTACATAATTATATATTTAC [XGTACX_site7540],8.12 ± 0.59
19,AGCATTTCTTTTACATGTACATAATATTTTTAATAA [XGTACX_site1968],8.35 ± 0.39
20,AAAAAAAAAAAAAAAAAAATAAAAAATAAATAAATA [CACACA_negctrl_site1498],8.885 ± 0.007
